In all, about 33,000 sequences were measured (“E-score (-0.5 to 0.5)”: median about -0.017, highest 2% from about 0.3 on). The list shows a part of the results.

Here are results for 86 sequences from the supplement of paper PMC3334620.

For the assay, the target named is T1, Sut1 (UniProt P53032).
T1 sequence: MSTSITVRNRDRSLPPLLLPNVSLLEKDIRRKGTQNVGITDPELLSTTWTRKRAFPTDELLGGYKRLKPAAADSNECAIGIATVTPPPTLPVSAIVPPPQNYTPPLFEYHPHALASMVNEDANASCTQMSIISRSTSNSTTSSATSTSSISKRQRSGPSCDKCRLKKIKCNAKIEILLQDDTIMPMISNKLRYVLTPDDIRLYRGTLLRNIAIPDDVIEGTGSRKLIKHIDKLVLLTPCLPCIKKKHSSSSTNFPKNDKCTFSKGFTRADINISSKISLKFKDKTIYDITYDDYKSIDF
The assay is described as follows: PBM E-score (8-mer binding enrichment) (E-score (-0.5 to 0.5)); higher = stronger / more preferred TF binding; most listed sequences are background and not binding sites. The conditions noted are these: protein concentration: 200 nM; construct: GST-full length. An outline of the steps:
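Masliner-normalised scans of fluorescent anti-GST signal were the basis for scoring. That signal came from GST-tagged yeast transcription factors applied at about 100-200 nM to double-stranded universal all-10-mer Agilent arrays on fresh or once-stripped slides. Each ungapped eight-base word, pooled with its reverse complement, received an E-score from the Universal PBM Analysis Suite.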
In the case of CCAAGTCA, the “PBM E-score” value was -0.059. In the case of AATAAAAG it was 0.142; in that of AGTTTGGC, -0.0727.

As to TCAAGACA, the “PBM E-score” value is -0.0678. Turning to GGGACTCA, the “PBM E-score” value is -0.288.

For the sequence TCGCACGA, the “PBM E-score” value is -0.136. In the case of ACCAGATG it was -0.227; in that of CCAGACCC, -0.324; in that of CAGATTCG, -0.00249. In the case of AGGCGCCA, the “PBM E-score” value is -0.0768. With GGTGACAC, the “PBM E-score” value was -0.176. Regarding CGGGCCCC, the “PBM E-score” value is -0.25.

As for CCGAGGGA, the “PBM E-score” value is -0.172. Take CGCTCTGC: the “PBM E-score” value was -0.101. As for AACTCGTA, the “PBM E-score” value worked out at 0.0961. Regarding ATTTCCTC, the “PBM E-score” value came out at 0.051. In the case of CATAGCGG it was -0.0946; in that of AACGCACA, 0.00372.

On to GCCGCGGC, for which the “PBM E-score” value came to 0.0334. In the case of ATCATGGA it was -0.138; in that of AAGTTTGC, 0.0892; in that of CGAGAAAG, 0.112.

Turning to CGAGCAGA, the “PBM E-score” value was -0.27. In the case of GCGACCGA it was -0.0351; in that of AACTTCCC, -0.0211; in that of AATGGAGC, -0.088.

Consider GGTCCGAC, for which the “PBM E-score” value was 0.24.

GGGTTAAA: the “PBM E-score” value was -0.0466. In the case of CTTCTGTA it was -0.0703. CAGTTTCG: the “PBM E-score” value is -0.0259.

CCTCCCCG: the “PBM E-score” value is -0.0253. With AGGAATTA, the “PBM E-score” value was 0.137.

On to CGATCAAA, for which the “PBM E-score” value amounted to 0.123. In the case of TAACCGCA it was 0.0567.

Regarding ATCGATCC, the “PBM E-score” value is -0.241.

Turning to CATGCGCG, the “PBM E-score” value is -0.108. In the case of ATGCTTGG it was -0.141; in that of CTACGAGA, -0.0228; in that of AGAAGAGA, 0.00644.

As to ATTTTTCA, the “PBM E-score” value worked out at 0.116. In the case of AAGAAGTC it was 0.172. In the case of CCCCCGGA it was 0.0624.

As for ACCCTTAT, the “PBM E-score” value was -0.0526. Regarding AAAATTCG, the “PBM E-score” value was determined as 0.216. Regarding AATCGCGC, the “PBM E-score” value was -0.0232.

As to GAAGCAAC, the “PBM E-score” value was -0.0509. In the case of CGCGGTGA it was -0.18; in that of CAACAGAG, -0.045. In the case of AAAACATC it was -0.018. AACGCGTC: the “PBM E-score” value came out at 0.022. In the case of GCGAAATA it was 0.0555; in that of CCATTCCA, -0.0844. Take CTGGGAGC: the “PBM E-score” value was -0.19.

On to AGGAGGGC, for which the “PBM E-score” value was -0.321. In the case of GGCACCGA it was 0.0329.

On to CTGTGGGC, for which the “PBM E-score” value was -0.232. In the case of CGGAGACA it was 0.26. CCATACCC: the “PBM E-score” value was -0.154. In the case of AAACTTCC, the “PBM E-score” value was 0.0932.

Regarding GATATACC, the “PBM E-score” value worked out at 0.116. In the case of TAGGAACA it was 0.0612; in that of GTTCCCCA, -0.189. As for AACGCGTT, the “PBM E-score” value was -0.183. On to GATGTGAA, for which the “PBM E-score” value amounted to 0.0994. In the case of TAAGCTCA it was -0.133; in that of AAGCTCAG, 0.0414. As for AAACGAAA, the “PBM E-score” value amounted to 0.228. Take CCACACGA: the “PBM E-score” value is -0.154. As to CGTTTGAG, the “PBM E-score” value is -0.122. In the case of TGGTATAA it was 0.193; in that of AGATATCA, 0.166; in that of GAACTTCC, -0.00268. In the case of CATAGCGC it was 0.025; in that of CATAACGC, -0.00576.

Regarding GTAATTGA, the “PBM E-score” value came to 0.238. In the case of GACCGGGA it was -0.0471. In the case of CTAGCTAC it was -0.3; in that of ATGGCAAT, -0.0138. On to GATTTACC, for which the “PBM E-score” value was found to be 0.21.

In the case of AATGTCCA, the “PBM E-score” value was 0.0363.

As for CAAATTCA, the “PBM E-score” value worked out at 0.0268.

Regarding ACACCACT, the “PBM E-score” value came out at 0.162. Consider CCACCCGC, for which the “PBM E-score” value is -0.23.

In the case of AACAAGCT, the “PBM E-score” value stood at 0.135. GTTTGGGA: the “PBM E-score” value was -0.0285.

As for CATCCCAC, the “PBM E-score” value is -0.21.
